# In a collection of fitness landscapes (doi:10.1016/j.celrep.2020.107928):
# Over roughly 81,000 sequences, “one-hybrid fitness for binding parS DNA” has its median near -0.17; the highest 2% begin near 0.51. The list shows a part of the results.
# B1: Caulobacter ParB omega fusion; a variant is named by its letters at X, in order, B8GW30 (parent)
# chain: MESVVVGEPGMSEGRRGLGRGLSALLGEVDAAPAQAPGEQLGGSREAPIEILQRNPDQPRRTFREEDLEDLSNSIREKGVLQPILVRPSPDTAGEYQIVAGERAWRAAQRAGLKTVPIMVRELDDLAVLEIGIIENVQRADLNVLEEALSYKVLMEKFERTQENIAQTIGKSXSHVANXMRLLXLPDEVQSYLVSGELTAXHARAIAAAADPVALAKQIIEGGLSVRETEALARKAPNLSAGKSKGGRPPRVKDTDTQALESDLSSVLGLDVSIDHRGSTGTLTITYATLEQLDDLCNRLTRGI
# Variants of: B1
# Experiment: one-hybrid fitness for binding parS DNA (scaled: cognate 1, non-cognate 0); higher = stronger binding
# Settings: with parS DNA site
# Summary of the method: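 The reporter was HIS3, with the binding site 19 bp from the promoter, in E. coli USO used for bacterial one-hybrid selection of Caulobacter ParB libraries with four specificity codons randomised. Growth was on M9 lacking histidine, with 0.1 mM IPTG and 5 mM 3-AT, for 48 hours at 37°C. Illumina sequencing covered plasmids before and after selection; three replicate libraries were pooled and variants with under 10 reads dropped. A fitness score is the log change in variant-to-wild-type read ratio, rescaled to the cognate and non-cognate references.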
row,Variant,one-hybrid fitness for binding parS DNA
1,THYC,≤ 0.2
2,VRHS,≤ 0.2
3,VGST,≤ 0.2
4,YPWG,≤ 0.2
5,IKTR,≤ 0.2
6,TVKF,≤ 0.2
7,KWDR,≤ 0.2
8,DYCR,≤ 0.2
9,KDDR,≤ 0.2
10,MTQT,≤ 0.2
11,RFQI,≤ 0.2
12,MQPG,≤ 0.2
13,LFYR,≤ 0.2
14,VDYC,≤ 0.2
15,WSTR,≤ 0.2
16,CVHR,≤ 0.2
17,HTGK,≤ 0.2
18,HSTW,≤ 0.2
19,VKWL,≤ 0.2
20,LMKQ,≤ 0.2
21,LGEA,≤ 0.2
22,EHDG,≤ 0.2
23,PCCA,≤ 0.2
24,NQQG,≤ 0.2
25,PIRP,≤ 0.2
26,AHLK,≤ 0.2

row,Variant,one-hybrid fitness for binding parS DNA
1,VPKM,≤ 0.2
2,VRKC,≤ 0.2
3,QGAL,≤ 0.2
4,FLRR,≤ 0.2
5,SMGT,≤ 0.2
6,QDSI,≤ 0.2
7,QVLR,≤ 0.2
8,PTVK,≤ 0.2
9,EEPS,≤ 0.2
10,EHMY,≤ 0.2
11,WAWR,≤ 0.2
12,PKNV,≤ 0.2
13,SVAG,≤ 0.2
14,DTSC,≤ 0.2
15,CSAR,≤ 0.2
16,SKSY,≤ 0.2
17,IKFC,≤ 0.2
18,NAGI,≤ 0.2
19,SSRE,≤ 0.2
20,TNDE,≤ 0.2
21,MDIK,≤ 0.2
22,LALN,≤ 0.2
23,HELG,≤ 0.2
24,NNMR,≤ 0.2
25,VQAT,≤ 0.2
26,MTRH,≤ 0.2

row,Variant,one-hybrid fitness for binding parS DNA
1,LQHS,≤ 0.2
2,MESW,≤ 0.2
3,WQRW,≤ 0.2
4,TRGS,≤ 0.2
5,FLSR,≤ 0.2
6,VRTW,≤ 0.2
7,AIRC,≤ 0.2
8,LSYV,≤ 0.2
9,QQCY,≤ 0.2
10,ETSG,≤ 0.2
11,KRVT,≤ 0.2
12,RQFF,≤ 0.2
13,PWTP,≤ 0.2
14,NWPS,≤ 0.2
15,SSCP,≤ 0.2
16,ITTK,≤ 0.2
17,ARFC,≤ 0.2
18,CESW,≤ 0.2
19,AQEM,≤ 0.2
20,CKTL,≤ 0.2
21,HHSE,≤ 0.2
22,VQLR,≤ 0.2
23,YKIG,≤ 0.2
24,QCAD,≤ 0.2
25,TNHG,≤ 0.2
26,PWLL,≤ 0.2

row,Variant,one-hybrid fitness for binding parS DNA
1,IPHF,≤ 0.2
2,IVQA,≤ 0.2
3,PNFG,≤ 0.2
4,ERMR,≤ 0.2
5,ALQD,≤ 0.2
6,SRTP,≤ 0.2
7,PLSH,≤ 0.2
8,RYIP,≤ 0.2
9,RRKI,0.313
10,LVRY,≤ 0.2
11,RCDI,≤ 0.2
12,AESG,≤ 0.2
13,LVWS,≤ 0.2
14,AGVD,≤ 0.2
15,VGAR,≤ 0.2
16,ETQW,≤ 0.2
17,DAVS,≤ 0.2
18,ENWS,≤ 0.2
19,TLPI,≤ 0.2
20,YQDS,≤ 0.2
21,QSTF,≤ 0.2
22,LHAR,≤ 0.2
23,PVFF,≤ 0.2
24,TGST,≤ 0.2
25,FMQG,≤ 0.2
26,WSNT,≤ 0.2

row,Variant,one-hybrid fitness for binding parS DNA
1,IVKC,≤ 0.2
2,WFHS,≤ 0.2
3,HPVG,≤ 0.2
4,LGHA,≤ 0.2
5,GCHG,≤ 0.2
6,LAKW,≤ 0.2
7,KMWD,≤ 0.2
8,PSQA,≤ 0.2
9,QYGL,≤ 0.2
10,YARH,≤ 0.2
11,MDNT,≤ 0.2
12,ADKD,≤ 0.2
13,QNVG,≤ 0.2
14,KTYH,≤ 0.2
15,THNW,≤ 0.2
16,PHHA,≤ 0.2
17,MNRQ,≤ 0.2
18,QFEE,≤ 0.2
19,RRFT,0.623
20,QRIT,≤ 0.2
21,GATG,≤ 0.2
22,RFST,0.841
23,PGSN,≤ 0.2
24,MCIC,≤ 0.2
25,RKEF,≤ 0.2
26,MCYT,≤ 0.2

row,Variant,one-hybrid fitness for binding parS DNA
1,DHTM,≤ 0.2
2,SIQG,≤ 0.2
3,KGAH,≤ 0.2
4,RDGC,≤ 0.2
5,SLEM,≤ 0.2
6,DHNA,≤ 0.2
7,FPVT,≤ 0.2
8,WVHC,≤ 0.2
9,SIFQ,≤ 0.2
10,VRPI,≤ 0.2
11,AEHM,≤ 0.2
12,TLPR,≤ 0.2
13,MKCY,≤ 0.2
14,AHMG,≤ 0.2
15,PEKR,≤ 0.2
16,ISCS,≤ 0.2
17,QSQK,≤ 0.2
18,RGAT,0.524
19,GYQM,≤ 0.2
20,HCLC,≤ 0.2
21,LPNQ,≤ 0.2
22,CLKS,≤ 0.2
23,MVAV,≤ 0.2
